According to a collection of fitness landscapes (doi:10.1126/science.1257360):
This is one part of the list.

B1: PhoQ; a variant is named by its letters at X, in order, P23837 (parent)
chain: MKKLLRLFFPLSLRVRFLLATAAVVLVLSLAYGMVALIGYSVSFDKTTFRLLRGESNLFYTLAKWENNKLHVELPENIDKQSPTMTLIYDENGQLLWAQRDVPWLMKMIQPDWLKSNGFHEIEADVNDTSLLLSGDHSIQQQLQEVREDDDDAEMTHSVAVNVYPATSRMPKLTIVVVDTIPVELKSSYMVWSWFIYVLSANLLLVIPLLWVAAWWSLRPIEALAKEVRELEEHNRELLNPATTRELTSLVRNLNRLLKSERERYDKYRTTLTDLTHSLKTPLXXLQXXLRSLRSEKMSVSDAEPVMLEQISRISQQIGYYLHRASMRGGTLLSRELHPVAPLLDNLTSALNKVYQRKGVNISLDISPEISFVGEQNDFVEVMGNVLDNACKYCLEFVEISARQTDEHLYIVVEDDGPGIPLSKREVIFDRGQRVDTLRPGQGVGLAVAREITEQYEGKIVAGESMLGGARMEVIFGRQHSAPKDE

Variants of: B1
Assay: enrichment ratio after two sorts for PhoP signalling (ratio (wild type AVST 3.29)); higher = more functional
Details: with PhoP (E. coli)

Variant | enrichment ratio
WSAR | ≤ 0.25
YPTV | ≤ 0.25
HENP | 6.36
VHWR | ≤ 0.25
HNIW | ≤ 0.25
MFWI | ≤ 0.25
LRHS | ≤ 0.25
PATH | ≤ 0.25
TNIS | ≤ 0.25
VSVI | ≤ 0.25
ESLM | ≤ 0.25
MIGW | ≤ 0.25
SSMC | 9.26
ISMI | 4.13
YKWA | ≤ 0.25
PPSC | ≤ 0.25
FQWV | ≤ 0.25
DPHN | ≤ 0.25
KAFM | ≤ 0.25
HHMK | ≤ 0.25
KKDF | ≤ 0.25
WEDF | ≤ 0.25
MFNF | ≤ 0.25
TSDQ | ≤ 0.25
MYYD | ≤ 0.25
NGPE | ≤ 0.25

Variant | enrichment ratio
LEDA | ≤ 0.25
PVKN | ≤ 0.25
PSSK | ≤ 0.25
VKIG | ≤ 0.25
KLRF | ≤ 0.25
RWNQ | ≤ 0.25
TTFC | ≤ 0.25
NMCN | ≤ 0.25
DMPS | ≤ 0.25
EMKI | ≤ 0.25
FKYD | ≤ 0.25
PKAN | ≤ 0.25
ASIH | 6.7
RRVN | ≤ 0.25
YHAS | ≤ 0.25
GVMV | ≤ 0.25
EGFH | ≤ 0.25
GCMS | ≤ 0.25
SDVI | 11
WDLI | ≤ 0.25
NDHD | ≤ 0.25
EECN | ≤ 0.25
MNNV | ≤ 0.25
HEQE | ≤ 0.25
HHDA | ≤ 0.25
NALM | 5.51

Variant | enrichment ratio
PHFL | ≤ 0.25
QILI | ≤ 0.25
IMHI | ≤ 0.25
RMLY | ≤ 0.25
TCPQ | ≤ 0.25
HRLI | ≤ 0.25
KCVH | ≤ 0.25
REHD | ≤ 0.25
GALQ | 8.32
RDGY | ≤ 0.25
GNPE | ≤ 0.25
GLYI | ≤ 0.25
LRWY | ≤ 0.25
VDDG | ≤ 0.25
LQHF | ≤ 0.25
QCWD | 4.9
PYRV | ≤ 0.25
MLHA | ≤ 0.25
LICL | ≤ 0.25
RSNA | ≤ 0.25
LHHE | ≤ 0.25
SICM | 14.4
ADGG | ≤ 0.25
NSEI | ≤ 0.25
NLTC | ≤ 0.25
FYYF | ≤ 0.25

Variant | enrichment ratio
TFIQ | ≤ 0.25
THFL | 1.14
PFPV | ≤ 0.25
RISH | ≤ 0.25
YRVR | ≤ 0.25
MIFC | ≤ 0.25
SDEY | ≤ 0.25
PTYR | ≤ 0.25
PGRC | ≤ 0.25
FLHD | ≤ 0.25
VQLD | ≤ 0.25
WDHP | ≤ 0.25
PKNQ | ≤ 0.25
DFYK | ≤ 0.25
WHRE | ≤ 0.25
ATST | 4.28
VYVC | ≤ 0.25
QSDS | 20.8
HIFA | ≤ 0.25
IGNL | ≤ 0.25
DYCA | ≤ 0.25
GEAM | 7.34
VWVA | ≤ 0.25
RITP | ≤ 0.25
IIQD | ≤ 0.25
NPMI | ≤ 0.25

Variant | enrichment ratio
FMWN | 1.04
HYNY | ≤ 0.25
MAPF | ≤ 0.25
TCGW | 2.79
KIET | ≤ 0.25
PHQE | ≤ 0.25
MHIM | ≤ 0.25
AGYM | ≤ 0.25
HWRA | ≤ 0.25
LFQM | ≤ 0.25
ANGS | 6.27
YCQN | ≤ 0.25
HGIF | ≤ 0.25
SRIY | ≤ 0.25
SWLG | ≤ 0.25
HLDV | ≤ 0.25
MKME | ≤ 0.25
WGTK | ≤ 0.25
SMHQ | ≤ 0.25
ERLQ | ≤ 0.25
THHW | ≤ 0.25
LWMM | ≤ 0.25
TVWA | ≤ 0.25
VFAT | ≤ 0.25
ITYK | ≤ 0.25
HHAK | ≤ 0.25

Variant | enrichment ratio
VWAW | ≤ 0.25
PTCD | ≤ 0.25
VLFD | ≤ 0.25
PNIS | ≤ 0.25
CSTT | ≤ 0.25
ENIE | ≤ 0.25
FNHT | ≤ 0.25
DWLM | ≤ 0.25
WGIR | ≤ 0.25
ALSE | 1.27
AIAQ | 7.27
FAQK | ≤ 0.25
FEQQ | ≤ 0.25
RQVN | ≤ 0.25
HDKI | ≤ 0.25
KLMM | ≤ 0.25
TILC | 2.14
SCNP | ≤ 0.25
AMAL | 11.3
PVSW | ≤ 0.25
MTRV | ≤ 0.25
HMAI | ≤ 0.25
KFVT | ≤ 0.25
